Data published in PubChem BioAssay (NCI).
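Method: 48-hour compound exposure of cells in 96-well plates, five concentrations, linear interpolation of endpoints. The concentration for 50% growth inhibition is given as GI50. At the TGI there is no net growth.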

system: NCI-H322M lung; assay: NCI tumour cell line growth inhibition, 48 h

Compound | GI50 | TGI
CC(=O)Nc1cccc(Nc2nc(N[C@@H](C)c3ccccc3)c3ccccc3n2)c1 | 0.756 µM | 13.2 µM
O=C(Nc1cccc(Cl)c1)Nc1nc2ccc([N+](=O)[O-])cc2s1 | 0.565 µM | 3.47 µM
CCOc1ccccc1NC1=C(Cl)C(=O)c2nc(C)ccc2C1=O | 2.22 µM | 7.91 µM
O=C(N/N=C\c1ccc(Cl)cc1)c1ccc2nc(-c3ccc(Br)cc3)[nH]c2c1 | 2.32 µM | 6.33 µM
Nc1cc(-c2c[nH]c3ccc(Br)cc23)nc2cc(-c3c[nH]c4ccc(Br)cc34)nn12 | 1.44 µM | 3.42 µM
